Laboratory results taken from PMC11079024, “Identification of a family of species-selective complex I inhibitors as potential anthelmintics” (Nature Communications, 2024).

Experiments:
[1] = test system: L1 wild-type C. elegans (N2); details: for LC50: caenorhabditis elegans; for C. elegans L1 development and viability (6-day growth): individual replicate (Rep)
[2] = test system: L1 wild-type C. elegans (N2); assay: microbe, parasite or virus in culture; details: Caenorhabditis elegans; for viability at 1 µM: read-out: C. elegans Wild type development/viability, Dose 1 µM; for viability at 2 µM: read-out: C. elegans Wild type development/viability, Dose 2 µM; for viability at 3.9 µM: read-out: C. elegans Wild type development/viability, Dose 3.9 µM; for viability at 15.6 µM: read-out: C. elegans Wild type development/viability, Dose 15.6 µM; for viability at 62.5 µM: read-out: C. elegans Wild type development/viability, Dose 62.5 µM; for viability at 125 µM: read-out: C. elegans Wild type development/viability, Dose 125 µM; for viability at 250 µM: read-out: C. elegans Wild type development/viability, Dose 250 µM; for viability at 500 µM: read-out: C. elegans Wild type development/viability, Dose 500 µM; for viability at 1000 µM: read-out: C. elegans Wild type development/viability, Dose 1000 µM
[3] = read-out: C. elegans (Wild type) Development & Viability Assay LC50
[4] = read-out: C. elegans Wild type development/viability, Dose 31.3 µM
[5] = read-out: C. elegans Wt viability log10 LC50 (converted)
[6] = 144 h, read-out: C. elegans (Wild type) Development & Viability Assay LC50

SMILES | LC50 [1] | LC50 [2, 3] | viability at 1 µM [2] | viability at 2 µM [2] | viability at 3.9 µM [2] | viability at 15.6 µM [2] | viability at 62.5 µM [2] | viability at 125 µM [2] | viability at 250 µM [2] | viability at 500 µM [2] | viability at 1000 µM [2] | LC50 [2, 5] | other results
O=C1OC(c2ccccc2)=NC1=CC=Cc1ccccc1 (mixture of isomers) [NPD8298] | > 100 µM | – | – | – | – | – | – | – | – | – | – | – | –
CCCCCCCCCCCCCCCc1cccc(O)c1C(=O)O [Anacardic acid] | > 100 µM | – | – | – | – | – | – | – | – | – | – | – | –
CCc1cc(OCCn2cnc3ccccc32)ccc1Cl [Compound 7925288] | – | 45.6 µM | 100% | 97.7% | 100% | 99.4% | 6.7% | 4.2% | 1.7% | 2.5% | 0.7% | 45.6 µM | viability at 31.3 µM [2, 4]: 95.9%
Cc1ccc(SCCCCn2cnc3ccccc32)cc1 [Compound 7925333] | – | 227 µM | 100% | 97.8% | 100% | 100% | 100% | 100% | 22.9% | 2.7% | 2% | 226 µM | viability at 31.3 µM [2, 4]: 96.9%
Clc1ccc(SCCCCn2cnc3ccccc32)cc1 [Compound 7925515] | – | 51.3 µM | 99.5% | 98.2% | 98.8% | 99.8% | 37.2% | 5.6% | 2.3% | 3% | 1.4% | 51.3 µM | viability at 31.3 µM [2, 4]: 80.3%
Clc1ccccc1OCCCCn1cnc2ccccc21 [Compound 7925804] | – | 85.9 µM | 99.2% | 97.8% | 97.7% | 97.5% | 90.8% | 6.2% | 3.9% | 1.6% | 1% | 85.9 µM | viability at 31.3 µM [2, 4]: 97.2%
Cc1ccc(SCCCn2cnc3ccccc32)cc1 [Compound 7926035] | – | 83.4 µM | 96.2% | 96.1% | 93.8% | 97.2% | 84.3% | 10.2% | 3.5% | 4.5% | 4.9% | 83.4 µM | viability at 31.3 µM [2, 4]: 93.1%
CC(C)Oc1cccc(OCCn2cnc3ccccc32)c1 [Compound 7926496] | – | 375 µM | 95.1% | 96.1% | 100% | 100% | 100% | 98.7% | 69.1% | 36.5% | 4.2% | 375 µM | viability at 31.3 µM ([2]; read-out: C. elegans Wild type development/viability): 91.5%
Cn1c(Cc2ccc(Cl)cc2)nc2ccccc21 [Compound 9005666] | – | 193 µM | – | – | – | – | – | – | – | – | – | 193 µM | –
O=C(/C=C/c1ccccc1)/C=C/c1ccccc1 [FSL0005] | 4.18 µM | – | – | – | – | – | – | – | – | – | – | – | –
O=C(CCCN1C(=O)c2cccc3cccc(c23)C1=O)N1CCN(Cc2ccc3c(c2)OCO3)CC1 [HTD0465] | 35.3 µM | – | – | – | – | – | – | – | – | – | – | – | –
COc1ccc(-c2cc(=Nc3ccc(C)cc3)c3ccccc3o2)cc1OC [NPD1450] | > 100 µM | – | – | – | – | – | – | – | – | – | – | – | –
COc1cc2c(cc1OC)C(c1ccc(-c3ccc(Cl)c(Cl)c3)o1)=NCC2 [NPD3577] | – | – | – | – | – | – | – | – | – | – | – | – | LC50 [2, 6]: > 100 µM
CC1(C#CCN2CCCCCC2)CCC2C(O1)c1ccccc1OC2(C)C (centres unmarked) [NPD5219] | 38.7 µM | – | – | – | – | – | – | – | – | – | – | – | –
Cc1cc(O)c(C(=O)/C=C/c2ccc(C(C)C)cc2)c(=O)o1 [NPD6240] | > 100 µM | – | – | – | – | – | – | – | – | – | – | – | –
COc1cc2c(cc1OC)C(/C=C/c1ccc(N(C)C)cc1)=NCC2 [NPD6303] | – | – | – | – | – | – | – | – | – | – | – | – | LC50 [2, 6]: > 100 µM
COc1ccc(-c2cc(=Nc3ccccc3N)c3ccccc3o2)cc1 [NPD6380] | > 100 µM | – | – | – | – | – | – | – | – | – | – | – | C. elegans L1 development and viability (6-day growth) ([1]; dose 0.2 µM): 0.984; C. elegans L1 development and viability (6-day growth) ([1]; dose 3.1 µM): 0.953; C. elegans L1 development and viability (6-day growth) ([1]; dose 6.3 µM): 0.996; C. elegans L1 development and viability (6-day growth) ([1]; dose 25 µM): 0.996; C. elegans L1 development and viability (6-day growth) ([1]; dose 100 µM): 0.837 and 0.905

Several values for one entry are separate records, joined by “and”; a condition that tells them apart may be missing. Equal entries are not always repeated. Where two headings read alike, the source gives them in different places.
